According to PubChem BioAssay AID485341 (National Center for Advancing Translational Sciences (NCATS), 2010):
The whole screen tested about 330,000 compounds, of which about 1,700 (0.52%) were called active. The shares of active, inactive and inconclusive entries below differ from those in the screen. The call rests on the fitted dose curve; in most records, active means well fitted inhibition curve with a large enough effect; inconclusive means small, poorly fitted or top-dose-only effect; inactive means no such curve, though single readings can be large or run the other way. Potencies beside an inconclusive call are fits to weak or partial responses and may not hold up.
Further: nearly all actives have a fitted effect of over 20% in size.
Potency means the concentration at half of the fitted maximal effect; tags describe the fitted curve by direction and shape.

What follows are molecules tested against Beta-lactamase (Escherichia coli (strain K12)) (UniProt P00811) (assay: qHTS Inhibitors of AmpC Beta-Lactamase (assay without detergent)). Conditions: AmpC nitrocefin hydrolysis, absorbance 480 nm, 0.0001% Triton; series mostly up to 57.1 µM.
UniProt P00811, sequence (P00811 whole entry, looked up): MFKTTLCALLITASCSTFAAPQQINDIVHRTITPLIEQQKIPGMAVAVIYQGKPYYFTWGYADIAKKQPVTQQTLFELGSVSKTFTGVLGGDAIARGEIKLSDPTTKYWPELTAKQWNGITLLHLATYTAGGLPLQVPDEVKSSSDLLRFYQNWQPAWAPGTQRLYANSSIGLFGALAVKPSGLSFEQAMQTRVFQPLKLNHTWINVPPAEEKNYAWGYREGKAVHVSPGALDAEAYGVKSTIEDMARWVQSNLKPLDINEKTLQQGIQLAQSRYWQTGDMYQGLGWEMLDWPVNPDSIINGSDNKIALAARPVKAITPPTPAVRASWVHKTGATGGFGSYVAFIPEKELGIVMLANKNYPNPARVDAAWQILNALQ
Procedure: NIH Molecular Libraries Probe Production Network [MLPCN] NIH Chemical Genomics Center [NCGC] Assay Provider: Professor Brian Shoichet, UCSF Assay Overview: This aggregation profiling approach exploits the sensitivity of aggregate formation to detergent. Inhibition of b-lactamase is measured in the presence and absence of 0.01% Triton X-100. This particular assay had the prescence of 0.01% Triton X-100. See Pubchem assay "Promiscuous and Specific Inhibitors of AmpC Beta-Lactamase (assay without detergent)" for related screen. Compounds that inhibit only in the absence of detergent are considered likely promiscuous aggregators. A screen of 1,030 compounds was performed in Brian Shoichet's lab in 96-well format. AmpC activity was measured by following the absorbance at 480 nm. Nitrocefin is a chromogenic substrate: while nitrocefin is yellow (lmax 390 nm), the product of its hydrolysis is red (lmax 486 nm, 17,000 M-1). AmpC beta lactamase was provided by Shoichet Lab, UCSF.
Buffer: 20 mM phosphate buffer, pH 7.0 Triton X-100: No Detergent screen: 0.0001%, Detergent screen: 0.01%. Reagents/Controls: Buffer in columns 3 and 4 as negative control (no enzyme). 5.3 nM AmpC in columns 1, 2, 5-48. Titration of UCSF compound 9 control (from 10 mM, then 1:2) pin-transferred to column 2. Column 1 is neutral (100% activity). Assay Steps: Six uL of reagents were dispensed to 1536-well Greiner black clear bottom plates. Compounds and controls (23 nL) were transferred via Kalypsys PinTool. The plates were incubated for 15 min at room temperature, and then 2 uL of 800 uM solution of nitrocefin was added to start the reaction. The plates were immediately transferred to and read every 20 seconds for 4 min on ViewLux (Perkin-Elmer) High-throughput CCD imager using 480 nm absorbance protocol. During dispense, reagent bottles were kept submerged into 4 deg C water bath. Keywords: NIH Roadmap, MLSCN, MLI, MLSMR, qHTS, NCGC, AmpC Beta-Lactamase, Aggregation
`CCOCCCNC(=O)Cn1cc2c(n1)CCCCC2` was tested, and the Potency was active: 44.7 µM. In the case of `Cc1nc(N)nc(N/N=C/c2ccccc2)n1`, the Potency is reported as “inactive”. `CCCCCCCCCC[N+](C)(C)CC/C=C1/c2ccccc2Sc2ccc(Cl)cc21` was tested, and the Potency was “inactive”. With `CCN1/C(=C/c2ccc3ccccc3[n+]2CC)C=Cc2ccccc21` the Potency was “inactive”. With `CCc1c(C)nc(N2CCOCC2)[nH]c1=O` the Potency was inconclusive: 5.01 µM [inhibitor, single point]. For `O=C(Nc1ccc(Br)cc1)c1ccccc1CC[N+](=O)[O-]`, the Potency was inconclusive: 0.794 µM [inhibitor, partial curve, poor fit]. `O=C(CSc1c[nH]c2ccccc12)N1CCCc2ccccc21` was tested, and the Potency was active: 17.8 µM. For `Cc1onc(-c2ccccc2)c1C(=O)NCc1ccccn1`, the Potency was inconclusive: 6.31 µM [inhibitor, single point]. For `CCc1nnc(NC(=O)c2cc(-c3ccco3)nc3ccccc23)s1`, the Potency was inconclusive: 7.94 µM [inhibitor, partial curve, poor fit]. `O=C(NNc1c2ccccc2nc2ccccc12)C(O)c1ccccc1` (stereo not drawn) was tested, and the Potency was inconclusive: 17.8 µM [inhibitor, partial curve]. `CCN(CC(=O)Nc1c(F)cccc1F)C(=O)c1ccc(S(=O)(=O)NCc2ccco2)cc1` was tested, and the Potency was inconclusive: 35.5 µM [inhibitor, single point]. With `Cc1ccc(S(=O)(=O)Nc2cccc(C(=O)N3CCN(c4ccccc4O)CC3)c2)cc1F` the Potency was inconclusive: 2.82 µM [inhibitor, full curve, poor fit]. For `C=C(C)c1cccc(C(C)(C)NC(=O)Nc2ccc3[nH]c(=O)[nH]c3c2)c1`, the Potency was inconclusive: 12.6 µM [inhibitor, partial curve, poor fit]. In the case of `COc1ccc(C(=O)NC(NC(=S)Nc2ccc(S(N)(=O)=O)cc2)C(Cl)(Cl)Cl)cc1` (stereo not drawn), the Potency is reported as active: 8.91 µM. For `O=C(c1ccc(-c2ccc(Cl)cc2)o1)N1CCN(c2ccc([N+](=O)[O-])cc2Cl)CC1`, the Potency was “inactive”. With `CCN1C(=O)C(C(=O)Nc2ccc(OC)cc2)C2CC1(C)Oc1ccccc12` (stereo not drawn) the Potency was inconclusive: 3.98 µM [inhibitor, single point]. With `Cc1ccc(C(=O)CSc2nc(N)cc(=O)[nH]2)cc1` the Potency was inconclusive: 6.31 µM [inhibitor, single point]. In the case of `Cc1cccc(OCCC(=O)OCC(=O)Nc2c(C)nn(-c3ccccc3)c2C)c1`, the Potency is reported as inconclusive: 39.8 µM [inhibitor, single point]. `C=CCn1c(O)c(N=NC(=S)Nc2ccccc2F)c2ccccc21` was tested, and the Potency was inconclusive: 31.6 µM [inhibitor, partial curve]. In the case of `COc1ccc(/C=C/C(=O)NC2CCS(=O)(=O)C2)cc1` (stereo not drawn), the Potency is reported as inconclusive: 35.5 µM [inhibitor, single point]. In the case of `Cc1cccc(-n2ccnc2SCC(=O)Nc2nccs2)c1`, the Potency is reported as “inactive”. With `COC(=O)C1=C(C)N(c2ccc(C)cc2)/C(=C/c2cccs2)C1=O` the Potency was inconclusive: 8.91 µM [inhibitor, single point]. In the case of `Cc1ccc(NC(=O)C2CCN(S(=O)(=O)c3c(C)[nH]c(=O)[nH]c3=O)CC2)cc1`, the Potency is reported as inconclusive: 4.47 µM [inhibitor, single point]. `COc1ccccc1NS(=O)(=O)c1ccc(O)c(C(=O)OCC(=O)c2ccc(Cl)cc2Cl)c1` was tested, and the Potency was inconclusive: 25.1 µM [inhibitor, partial curve, poor fit]. `C=CCN(c1ccccc1)S(=O)(=O)c1ccc2c(c1)NC(=O)C(C)S2` (stereo not drawn) was tested, and the Potency was inconclusive: 8.91 µM [inhibitor, full curve, poor fit]. With `Cc1ccc(NC(=S)NC(=O)C2CCCC2)cc1C` the Potency was active: 3.16 µM. In the case of `CC(=O)N/C(=C\c1ccccc1)C(=O)OC(C)C(=O)c1ccccc1` (stereo not drawn), the Potency is reported as inconclusive: 39.8 µM [inhibitor, single point]. With `Cc1ccc(N2CC(C(=O)OCc3nnc(-c4ccccc4)o3)CC2=O)cc1` (stereo not drawn) the Potency was inconclusive: 39.8 µM [inhibitor, single point]. For `CC(C)=CCc1c2c(c3occ(-c4ccc(O)cc4)c(=O)c3c1O)C=CC(C)(C)O2`, the Potency was active: 15.8 µM. For `CC(=O)c1ccc(S(=O)(=O)NC2CC(=O)N(c3ccc(C)cc3)C2)cc1` (stereo not drawn), the Potency was inconclusive: 39.8 µM [inhibitor, single point]. For `S=C(Nc1ccccc1)Nc1ccc(OCc2ccc(Cl)cc2Cl)cc1`, the Potency was inconclusive: 8.91 µM [inhibitor, partial curve, poor fit]. `Cc1cc(SCC(=O)c2ccc(O)c(O)c2)nc2ccccc12` was tested, and the Potency was inconclusive: 6.31 µM [inhibitor, partial curve]. For `O=C(COC(=O)c1cc[n+]([O-])cc1)Nc1c(Cl)cccc1C(F)(F)F`, the Potency was inconclusive: 39.8 µM [inhibitor, single point]. `O=[N+]([O-])c1ccc(N/N=C/c2ccc[nH]2)cc1` was tested, and the Potency was inconclusive: 39.8 µM [inhibitor, single point]. For `CC(=O)c1cccc(N(C(=O)c2ccccn2)C(C(=O)NC2CCCCC2)c2cccs2)c1` (stereo not drawn), the Potency was inconclusive: 8.91 µM [inhibitor, single point]. In the case of `Cc1ccc(NC(=O)COC(=O)c2ccccc2Nc2ccccc2)cc1`, the Potency is reported as active: 25.1 µM. In the case of `CC(C)CCNC(=O)/C=C/c1ccc(Br)cc1`, the Potency is reported as inconclusive: 35.5 µM [inhibitor, single point]. With `Cc1ccc(S(=O)(=O)Nc2cc(C)cn(Cc3ccccc3)c2=O)cc1` the Potency was “inactive”. `O=C1/C(=C/c2ccncc2)SC(=S)N1N1CCOCC1` was tested, and the Potency was “inactive”. `CCOC(=O)c1c(NC(=O)C(C)OC(=O)c2ccc(NC(=O)CC#N)cc2)sc2c1CCCC2` (stereo not drawn) was tested, and the Potency was active: 28.2 µM. For `Cc1ccc(NS(=O)(=O)c2ccc3c(c2)CC(=O)N3)c(C)c1`, the Potency was inconclusive: 22.4 µM [inhibitor, partial curve]. In the case of `Cc1ccc(NC(=O)CCC(=O)c2cccs2)nc1`, the Potency is reported as inconclusive: 31.6 µM [inhibitor, single point]. For `COc1ccc(S(=O)(=O)NCc2ccccn2)c(C)c1C`, the Potency was “inactive”. With `O=C(CSc1nc2ccc(NC(=O)c3ccccc3C(=O)O)cc2s1)Nc1ccc(F)c([N+](=O)[O-])c1` the Potency was active: 17.8 µM. In the case of `CCCN(C(=O)COC(=O)CCOc1ccc(C)cc1)c1c(N)n(Cc2ccccc2)c(=O)[nH]c1=O`, the Potency is reported as inconclusive: 35.5 µM [inhibitor, single point]. For `Cc1ccc(C)c(-c2nnc(NC(=O)C3=COCCO3)o2)c1`, the Potency was inconclusive: 35.5 µM [inhibitor, single point]. With `Cc1ccc(S(=O)(=O)N(C(=O)c2ccncc2)c2ccc3oc4c(c3c2)CCCC4)cc1[N+](=O)[O-]` the Potency was inconclusive: 3.55 µM [inhibitor, single point]. With `Cc1cc(=O)oc2cc(OCC#N)ccc12` the Potency was inconclusive: 44.7 µM [inhibitor, partial curve, poor fit]. `CC(NC(=O)c1cccs1)C(=O)NC1=NCCS1` (stereo not drawn) was tested, and the Potency was inconclusive: 7.08 µM [inhibitor, partial curve, poor fit]. `N#CCc1ccc(C(=O)c2ccccc2F)s1` was tested, and the Potency was active: 0.794 µM. With `O=C(O)c1ccc(/C=N/NC(=O)c2ccc(CN3c4cccc5cccc(c45)S3(=O)=O)cc2)cc1` the Potency was active: 28.2 µM. In the case of `CNC(=S)N(CCc1c(C)[nH]c2ccc(Cl)cc12)Cc1cccnc1`, the Potency is reported as “inactive”. In the case of `O=C(NC(=S)N1CCN(c2c(Cl)cccc2[N+](=O)[O-])CC1)c1cccs1`, the Potency is reported as inconclusive: 0.141 µM [inhibitor, full curve, poor fit]. For `COc1cc(/C=N/c2oc(-c3ccccc3)cc2C#N)ccc1O`, the Potency was inconclusive: 5.62 µM [inhibitor, single point]. In the case of `CCOC(=O)N1CCC(NC(=O)CC2C(=O)NCCN2Cc2ccccc2)CC1` (stereo not drawn), the Potency is reported as “inactive”. In the case of `Cc1cc(SCC(=O)c2ccccc2)n2ncc(-c3ccccc3)c2n1`, the Potency is reported as “inactive”. With `CCOc1c2ccc(C(=O)NC3CCCc4ccccc43)cc2nn1CC` (stereo not drawn) the Potency was inconclusive: 6.31 µM [inhibitor, single point]. For `Cc1cccc2nc(-c3ccco3)c(Nc3ccccc3)n12`, the Potency was inconclusive: 1.41 µM [inhibitor, partial curve]. In the case of `Cc1nc2cc(NC(=O)NCc3ccc4c(c3)OCO4)ccc2o1`, the Potency is reported as inconclusive: 7.08 µM [inhibitor, single point]. `COc1ccc(/C(C)=N/OC/C(O)=C(\C#N)c2nc3ccccc3[nH]2)c(OC)c1` was tested, and the Potency was active: 14.1 µM. In the case of `COc1ccc2[nH]c(N=Nc3ccccc3C)c(O)c2c1`, the Potency is reported as inconclusive: 17.8 µM [inhibitor, partial curve]. For `COc1ccccc1C/C(N)=N/OC(=O)c1ccc2c(c1)OCO2`, the Potency was inconclusive: 39.8 µM [inhibitor, single point]. In the case of `Cc1cccc(C2NC(c3cccc(C)c3)C([N+](=O)[O-])C(C)(C)C2[N+](=O)[O-])c1` (stereo not drawn), the Potency is reported as “inactive”. For `O=C(Cn1cc2c(n1)CCCCC2)N1CCc2ccccc21`, the Potency was inconclusive: 0.501 µM [inhibitor, full curve, poor fit]. In the case of `Cc1cccc(NC(=O)CSc2nnc(NC(=O)c3ccc(S(=O)(=O)N4CCOCC4)cc3)s2)c1C`, the Potency is reported as inconclusive: 5.01 µM [inhibitor, single point]. In the case of `CCN(CC)S(=O)(=O)c1ccc2nc(COC(=O)c3n[nH]c4ccccc34)[nH]c2c1`, the Potency is reported as active: 22.4 µM. In the case of `O=C(/C=C/c1ncc(C(F)(F)F)cc1Cl)OCc1ccccc1`, the Potency is reported as inconclusive: 8.91 µM [inhibitor, single point]. In the case of `Cc1ccc(C)c(CSc2nc3ccncc3n2CC(=O)Nc2ccc(C)c(C)c2)c1`, the Potency is reported as inconclusive: 2.82 µM [inhibitor, single point].
